Data: ChEMBL document CHEMBL4888484, “Replenishing the malaria drug discovery pipeline: Screening and hit evaluation of the MMV Hit Generation Library 1 (HGL1) against asexual blood stage Plasmodium falciparum ,using a nano luciferase reporter read-out” (2022)
Hit rate of the full screen: of about 150,000 compounds, about 540 (0.36%) showed an effect of 50% or more. Some of the results follow.

Each molecule was assayed on Plasmodium falciparum (assay: Primary screen in NF54 nanoGlo assay, in single point, at 2uM, 72h; a lower Z score goes with more inhibition). Details: timepoint 72 hour.
Type: functional, Erythrocyte

Row | Structure (SMILES) | % Inhibition | Z score
1 | CCCN1C(=O)CC[C@]2(CNC(=O)c3ncoc3-c3cccc(C)c3)CCC[C@@H]12 | -5% | 0.68
2 | COc1cc(OC)cc(C(=O)N2CCN(c3c(C)n(-c4ccccc4)c(=O)n(C)c3=O)CC2)c1 | -6% | 0.97
3 | Cc1cccc(S(=O)(=O)CCCn2ccc3ccn(C)c3c2=O)c1 | -14% | 1.27
4 | COCCn1nnc2c1CCN(C[C@H]1CCC3(COC3)O1)C2 | -2% | 0.4
5 | O=C(O)[C@]12CCCN(Cc3cccs3)[C@@H]1CCN(c1cnccn1)C2 | 3% | -0.28
6 | CCc1cnc(CCNC(=O)Nc2cccn(C)c2=O)s1 | -4% | 0.49
7 | O=C(C1c2ccccc2Oc2ccccc21)N1CCC(n2ccnn2)CC1 | -12% | 1.34
8 | CN(C)c1ccccc1CNc1cnc2c(c1)COCC2 | 7% | -1.03
9 | COc1cccc(CNC(=O)c2ccc(S(=O)(=O)N3CCCCCC3)s2)c1 | -13% | 1.8
10 | CN(Cc1cscn1)C(=O)NCC1(c2ccccc2)CC1 | 3% | -0.38
11 | Cc1n[nH]c(C)c1CNC(=O)N1CCc2c(F)cc(F)cc2C1 | 24% | -2.71
12 | C[C@@H](Cc1cccs1)NC(=O)c1cc(-c2ccccc2)on1 | -2% | 0.25
13 | Cc1[nH]nc(-c2ccc3c(c2)OCO3)c1NC(=O)c1ccccc1F | -2% | 0.22
14 | Cc1nn(C)c(N2CCC2)c1NC(=O)c1nccc2occc12 | -5% | 0.97
15 | CCO[C@H]1CC(NCCc2ccncc2C)[C@@]12CCCO2 (stereo partly drawn) | -4% | 0.65
16 | CCn1cc(OCc2sc(C)nc2C(F)(F)F)cn1 | 6% | -0.8
17 | C[C@@H](CNC(=O)c1c[nH]c2cccc(Br)c12)CN1CCCC1=O | -9% | 0.99
18 | Cc1ccccc1COc1ccccc1CN1C[C@@H]2[C@H](C1)[C@H]2C(=O)O | -16% | 3.16
19 | Cn1cccc1[C@@H](O)CNC(=O)C(=O)NCc1ccc(F)cc1 | -12% | 2.08
20 | Cc1ccc(NC(=O)N[C@H]2CC(=O)N(c3ccc4c(c3)OCCO4)C2)c(C)c1 | 9% | -1.25
21 | CN(Cc1nnc[nH]1)C1CN(C(=O)OCc2ccccc2)C[C@H]1O (stereo partly drawn) | 4% | -0.56

Row | Structure (SMILES) | % Inhibition | Z score
22 | CCC(=O)N1CCCCN(C)C(=O)[C@H](C)NC(=O)COc2ccc(cc2OC)C(=O)NCCC1 | -13% | 1.63
23 | CCN1CCN(C(=O)C2C3C(=O)N(Cc4ccc(C)c(C)c4)C[C@@]34C=C[C@@H]2O4)CC1=O (stereo partly drawn) | -4% | 0.81
24 | CC(C)CS(=O)(=O)CCNc1ncncn1 | -5% | 0.42
25 | Cc1n[nH]c([C@H]2CCO[C@H]2CN(C)C(=O)c2sc(C)nc2C)n1 | -8% | 1.66
26 | CCN1c2cc(C(=O)Nc3ccccc3OC)ccc2C(=O)N2CCCCC[C@H]21 | 1% | -0.11
27 | CCc1cnc(C)nc1N1CCC(N2CCC[C@H](C(=O)NC3CC3)C2)CC1 | -9% | 1.73
28 | CC(C)NS(=O)(=O)N[C@@H](C)c1csnn1 | 11% | -1.32
29 | FC(F)(F)c1cnc(NC2CCCCCCC2)c(Cl)c1 | 4% | -0.61
30 | O=C(Nc1nc(-c2cccs2)cs1)c1sc2ccccc2c1Cl | 8% | -1.04
31 | COc1ccc2c(c1)-c1onc(C(=O)N(C)C3CCCCC3)c1CC2 | -2% | 0.33
32 | Cc1cccnc1CCNCc1c(C(=O)N2C[C@@H](C)O[C@@H](C)C2)nc2ccc(Cl)cn12 | -17% | 2.59
33 | CC(=O)N1CCC(Oc2ccc(Cl)cc2C(=O)NC2Cc3ccccc3C2)CC1 | -5% | 0.67
34 | O=S(=O)(c1cccs1)N1CCN(CCc2ccccn2)CC1 | -4% | 0.69
35 | CCOC(=O)C1CCN(Cc2cncc(-c3ccc(Cl)c(Cl)c3)c2)CC1 | -1% | 0.08
36 | CCn1ccc(C(=O)N2CCC[C@@]3(CCC(=O)N(CCOC)C3)C2)cc1=O | -12% | 1.62
37 | Cc1ccc(NC(=O)[C@@H]2CCN(c3ccccc3Cc3ccccc3)C2=O)cc1C | -14% | 1.77
38 | Clc1ccc2nc(N(Cc3ccccc3)c3ccccc3)nc(-c3ccccc3)c2c1 | -3% | 0.44
39 | c1ccc(C2=Nc3ccc4ccccc4c3NC(c3ccccc3)=N2)cc1 | -7% | 0.76
40 | CCCN(CC(=O)OCC)C(=O)c1cnn(C)c1 | -3% | 0.36
41 | CN(CC1OCCc2ccccc21)C(=O)C1CNC(=O)N1 (stereo not drawn) | -5% | 1.01
42 | COc1ccccc1CC(=O)N1CC[C@H]2CN(C(C)=O)C[C@@]2(CO)C1 | 0% | 0.05

Row | Structure (SMILES) | % Inhibition | Z score
43 | O=C(c1ccco1)N1CCN(c2nnc(-c3ccccn3)s2)CC1 | -21% | 4.23
44 | C[C@H](Nc1nc(-c2ccc(N3CCCC3=O)cc2)cs1)c1ccccc1 | -7% | 0.65
45 | C[C@@H](c1ccon1)N(C)C(=O)c1cc(COc2cccc3cccnc23)on1 | -23% | 2.02
46 | O=c1[nH]c2ccc(NCc3cc(Cl)ccc3OCc3ccccc3F)cc2[nH]1 | 2% | -0.36
47 | Cc1ccc(S(=O)(=O)N2CCC[C@H]2c2cccs2)c(Cl)c1 | -8% | 1.04
48 | O=C(NC[C@@H]1CCCN(C(=O)C2CCC2)C1)C1CCC1 | -13% | 1.32
49 | O=C(Nc1cc(Cl)ccc1Cl)[C@@H]1CCCN1C(=O)c1cnccn1 | 3% | -0.4
50 | CC(=O)N[C@H]1C[C@H]2CN(Cc3ccc4c(c3)CCO4)[C@@H](CC(C)C)C(=O)N2C1 | 6% | -0.91
51 | Cc1nc(-c2ccc(C)c(NC(=O)c3ccc(F)c(C)c3)c2)n[nH]1 | -4% | 0.65
52 | C[C@H]1CNCCN1C(=O)c1cc(O)nc2ccc(Br)cc12 | -11% | 1.29
53 | COc1ccc(NC(=O)Cn2ncc(-c3cccc(OC)c3)nc2=O)cc1 | 2% | -0.24
54 | Cc1ccc(S(=O)(=O)N2CCN(C(=O)c3cc(C4CC4)nc4c3c(C)nn4C)CC2)cc1 | -2% | 0.2
55 | O=C(N[C@H]1COc2cc(F)cc(F)c21)c1ccoc1Br | -11% | 1.42
56 | COC(C)c1nc(CNC(C)c2cnn(C)c2C)cs1 (stereo not drawn) | 0% | -0.07
57 | CCN(CC)c1ccc(NC(=O)c2scnc2C)cn1 | -12% | 1.92
58 | CC(C)(C)CN1CCC[C@@](O)(CNC2CCCCCC2)C1=O | -26% | 2.29
59 | COc1ccc(CNC(=O)Cn2c(C)nc3c(c2=O)CN(Cc2ccccc2)CC3)cc1 | -1% | 0.12
60 | CCC1(CNC(=O)c2[nH]ncc2Cl)CCC1 | -3% | 0.52
61 | c1cncc(CNCc2ccc3nccnc3c2)c1 | 7% | -1.17
62 | CC[C@]1(O)CCN(Cc2cnc(N(C)C)s2)C1 | -4% | 0.39
63 | Cn1ccc2c(-c3ccc(N4CCCC4)nn3)ccnc21 | -11% | 2.04

Row | Structure (SMILES) | % Inhibition | Z score
64 | CC(C)C[C@H](NC(=O)OC(C)(C)C)c1nnc(S(=O)(=O)Cc2ccccc2F)o1 | -11% | 0.99
65 | O=C(COc1ccc(F)cc1)N1CCc2n[nH]c(=O)n2CC1 | -15% | 2.16
66 | CC(C)N1C[C@H](Oc2ccccc2)[C@@H]1C1CCN(C(=O)CC2CCN(C)CC2)CC1 | -8% | 0.97
67 | C#Cc1cccc(N(CC)Cc2csc(CS(C)(=O)=O)n2)c1 | 4% | -0.37
68 | N#Cc1ccc(CNC(=O)N2CC3CC=CCC3C2)c(F)c1 (stereo not drawn) | -3% | 0.61
69 | Cc1ccc(C(=O)N2CCC(C)C3CCCCC32)c(=O)[nH]1 (stereo not drawn) | -8% | 1.01
70 | CC[C@@H](C(=O)N1CCN(c2cnccn2)CC1)n1cccn1 | -5% | 0.57
71 | Cc1nn(-c2cc(N3CCOCC3)ncn2)c(C)c1CCC(=O)N1CCN(CCO)CC1 | -12% | 1.61
72 | CC1CC(NC(=O)N2CCC(CC#N)CC2)CC(C)O1 (stereo not drawn) | 3% | -0.47
73 | CNC(=O)[C@@H]1CC[C@](C)(C(=O)NCCc2csc(C)c2C)C1(C)C | -17% | 2.76
74 | CCOC(=O)c1ncc(NC(=O)c2ccc(S(=O)(=O)N(C)OC)cc2)s1 | -4% | 0.42
75 | Cc1cnccc1C(=O)NC1(CO)CCCCCC1 | -6% | 0.98
76 | CC[C@H](C)N(Cc1ccsc1)C(=O)CCC(=O)Nc1cccc(O)c1 | 3% | -0.47
77 | Cc1cccnc1CN1C(C)CCCC1CO (stereo not drawn) | -14% | 1.28
78 | COc1cc(OC)cc([C@@H](O)CNC(=O)Cn2cccnc2=O)c1 | -10% | 1.69
79 | CN(C)c1nc(N)cc(-c2ccc(C(=O)NCCCOC3CCCC3)cc2)n1 | -3% | 0.4
80 | Cc1ccccc1OCC(=O)NCc1nc(-c2cccn2C)no1 | -8% | 1.6
81 | Cc1cc(NCc2cccnc2Oc2ccc(C)c(F)c2F)nc(N)n1 | 1% | -0.17
82 | O[C@H](COC1CCOCC1)Cn1c(-c2ccccn2)nc2ccc(Cl)cc21 | -3% | 0.36
83 | Cc1nnc([C@H](C)N2CCn3c(n[nH]c3=O)C2)s1 | -15% | 1.88
84 | O=C1CN(CCCNC(=O)[C@]2(c3ccccc3)CC23CCCC3)CCN1 | 0% | -0.06
